From article PMC4497792 (RSC advances, 2015)
Like-named read-outs stand apart in the source and are kept apart here.

What was measured:
[1] = tested on: HeLa human cervical carcinoma cells; conditions: 8 hour incubation; for reduction of lactate production (in words): 50–200 μM, normoxic
[2] = tested on: HeLa human cervical carcinoma cells; experiment: cells; conditions: 8 h, read-out: inhibition of lactate production

| Structure (SMILES) | reduction of lactate production (in words) [1] | also measured |
| --- | --- | --- |
| O=CC[C@@H](O)[C@H](O)[C@H](O)CO [2-deoxyglucose, reference compound] |  | effect on lactate production (in words) ([1]; 10 mM): very modest effect |
| COC(=O)c1cc2c(C(F)(F)F)cc(-c3ccccc3)cc2n1O[C@H]1O[C@H](CO)[C@@H](O)[C@H](O)[C@@H]1O [Compound 2, Methyl 6-phenyl-4-(trifluoromethyl)-1-(((2R,3S,4S,5S,6R)-3,4,5-trihydroxy-6-(hydroxymethyl)tetrahydro-2H-pyran-2-yl)oxy)-1H-indole-2-carboxylate] | potent, dose-dependent reduction in lactate production | inhibition at 50 µM [2]: 55% |
| COC(=O)c1cc2c(C(F)(F)F)cc(-c3ccccc3)cc2n1O[C@@H]1O[C@H](CO)[C@H](O)[C@@H](O)[C@H]1O [Compound 3, Methyl 6-phenyl-4-(trifluoromethyl)-1-(((2S,3R,4R,5R,6R)-3,4,5-trihydroxy-6-(hydroxymethyl)tetrahydro-2H-pyran-2-yl)oxy)-1H-indole-2-carboxylate] | noticeable dose-dependent activity |  |
| COC(=O)c1cc2c(C(F)(F)F)cc(-c3ccccc3)cc2n1O[C@@H]1O[C@H](CO)[C@@H](O)[C@H](O)[C@H]1NC(C)=O [Compound 4, Methyl 1-(((2S,3R,4R,5S,6R)-3-acetamido-4,5-dihydroxy-6-(hydroxymethyl)tetrahydro-2H-pyran-2-yl)oxy)-6-phenyl-4-(trifluoromethyl)-1H-indole-2-carboxylate] | lacked any significant activity |  |
| COc1cc([C@@H]2c3cc4c(cc3[C@@H](O[C@@H]3O[C@@H]5CO[C@@H](C)O[C@H]5[C@H](O)[C@H]3O)[C@H]3COC(=O)[C@H]23)OCO4)cc(OC)c1O [etoposide, reference compound] |  | effect on lactate production (in words) ([1]; 10 μM): negligible effects |
